According to PubChem BioAssay AID493208 (National Center for Advancing Translational Sciences (NCATS), 2011):
Screen size: about 44,000 compounds; about 340 (0.77%) were called active. Another 5% or so got no clear call; they are omitted. The call rests on the fitted dose curve; in most records, active means well fitted inhibition curve with a large enough effect; inconclusive means small, poorly fitted or top-dose-only effect; inactive means flat fitted curve, though single readings scatter. The list shows a part of the results.

assay: Acumen qHTS Assay for Inhibitors of the mTORC1 Signaling Pathway in MEF (Tsc2-/-, p53-/-) Cells: Sytravon; conditions: phospho-rpS6 immunofluorescence/PI, 24 h; series mostly up to 38.3 µM; activity change, negative = inhibition: at the top concentration;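 further: plate controls were DMSO for no effect and rapamycin for full effect; nearly all actives have a fitted effect of over 50% in size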
Outline: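 Readout is phospho-S6 Alexa 488 signal normalized to PI per well, reported as % active cells with thresholds set from rapamycin (7.5 nM) and DMSO controls. Cells: Tsc2-/-, p53-/- MEFs, 24 hrs compound at 37 C; PI cell number serves as viability.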

| Compound | activity change, negative = inhibition |
| --- | --- |
| CCCc1cnc2c(c1SCc1cccc(C)c1)c(=O)n(C)c(=O)n2C | inactive: 3.15% |
| CCCOc1cccc(C(=O)Nc2cc(-c3nc4ccccc4[nH]3)ccc2C)c1 | inactive: -3.84% |
| COc1cc(OC)c(NC(=O)c2sc3nc4n(c(=O)c3c2C)CCCC4)cc1Cl | inactive: 7.79% |
| COc1ccc(S(=O)(=O)NCCc2sc(C)nc2C)cc1 | inactive: -16.3% |
| O=C(CC1C(=O)OCCN1Cc1ccccc1)Nc1cccc(Cl)c1 (stereo not drawn) | inactive: 4.31% |
| Cc1ccc(CCNC(=O)CN2C(=O)COc3ccc(S(=O)(=O)N4CCCC4)cc32)cc1 | inactive: 4.41% |
| COc1ccc(-n2c(-c3ccccc3F)nc3c(cnn3-c3ccc(C)cc3)c2=O)cc1 | inactive: -1.8% |
| CCOc1cc(Cn2c(-c3ccc(O)c(OCC)c3)nc3ccccc32)ccc1O | inactive: -9.89% |
| CCCCC(=O)N1CC(=O)Nc2ccc(F)cc2C1c1ccc(F)cc1 (stereo not drawn) | inactive: 2.13% |
| CCn1c(CNC(=O)C23CC4CC(CC(C4)C2)C3)nnc1SCC(=O)Nc1ccc(C)cc1 | inactive: -6.14% |
| CC(=O)c1ccc(NC(=O)c2sc(-n3nc(C)c(CCC(C)C)c3C)nc2C)cc1 | inactive: -6.89% |
| Cc1ccc(S(=O)Cc2ccc(C(=O)NCc3ccc(OC(C)C)cc3)o2)cc1 (stereo not drawn) | inactive: -6.03% |
| Cc1nc2c3cccnc3nn2c(C)c1CCC(=O)NCc1ccccc1Cl | inactive: -11.6% |
| Cc1ccc2c(Sc3ccccc3)c(C(=O)NCc3ccccc3F)[nH]c2c1 | inactive: -0.663% |
| CCOc1ccccc1NC(=O)CSc1nc2ccccc2nc1Cc1ccc(C)cc1 | inactive: 10.4% |
| CCN(CC)S(=O)(=O)c1nnc(NC(=O)COc2ccc(C)cc2)s1 | inactive: -2.7% |
| CC(=O)Nc1ccccc1-c1nc2ccccc2n(C(C)C(=O)Nc2cc(Cl)ccc2C)c1=O (stereo not drawn) | inactive: 0% |
| Cc1ccc(C)c(NC(=O)CSc2nnc(CNC(=O)c3ccccc3)n2-c2ccccc2)c1 | inactive: 1.01% |
| CCOc1ccc(NC(=O)c2ccc(CN3C(=O)C(C)=C(c4ccc(C)cc4)S3(=O)=O)cc2)cc1 | inactive: 0% |
| CCC(=O)Nc1ccccc1-c1nc2ccccc2n(Cc2cccc(Br)c2)c1=O | inactive: -12.7% |
| Cn1c(=O)c2sccc2n2c(CCCC(=O)Nc3ccc(Cl)cc3)nnc12 | inactive: 5% |
| COc1ccc(CN2CCCN(CC(=O)Nc3cc(C)ccc3C)S2(=O)=O)cc1 | inactive: 2% |
| CCOC(=O)c1sc(N2C(=O)c3oc4cc(C)c(C)cc4c(=O)c3C2c2ccc(C)cc2)nc1C (stereo not drawn) | inactive: -1.07% |
| O=C(Nc1ccccc1Cl)c1ccc(F)c(S(=O)(=O)NCc2ccc(Cl)c(Cl)c2)c1 | inactive: 4.7% |

| Compound | activity change, negative = inhibition |
| --- | --- |
| CCOC(=O)c1c(C)oc2nc(C)nc(Nc3cc(C)cc(C)c3)c12 | inactive: -0.758% |
| CCc1ccc2oc(C(=O)NCC(c3ccc(Cl)cc3)N3CCOCC3)c(C)c2c1 (stereo not drawn) | inactive: -5.57% |
| CC(=O)N1CCCc2cc(S(=O)(=O)N(CCN(C)C)Cc3ccccc3)ccc21 | inactive: -8.04% |
| Cc1ccc(-n2ncc3c(N4CCCCC4)ncnc32)cc1Cl | inactive: 9.94% |
| COc1ccc(-c2cc(OC(=O)c3ccccc3C)c3c(C)oc(C)c3c(=O)c2)cc1 | inactive: -1.54% |
| CCc1cccc(C)c1NC(=O)c1cc(S(=O)(=O)N(C)Cc2ccccc2)ccc1F | inactive: 7.05% |
| O=C(CSc1nc2ccccc2n1Cc1ccc(F)cc1)N1CCN(c2ccc(F)cc2)CC1 | inactive: 2.49% |
| Cc1csc2nc(COC(=O)c3ccc(F)cc3)cc(=O)n12 | inactive: -3.46% |
| Cc1cccc(N(CC(=O)NCc2ccccc2)S(C)(=O)=O)c1C | inactive: 2.74% |
| CCc1ccc(C2=CC(c3cccc(C)c3)n3c(nc4ccccc43)N2)cc1 (stereo not drawn) | inactive: -4.25% |
| Cc1ccc(C)c(NC(=O)Cn2cnc3c(oc4ccccc43)c2=O)c1 | inactive: 4.84% |
| O=C(Nc1ccc(OCc2cc(=O)n3ccsc3n2)cc1)c1ccc(F)cc1 | inactive: -7.58% |
| Cc1nnc(N2CCC(C(=O)NCCc3ccccc3)CC2)c2nn(-c3ccccc3)c(C)c12 | inactive: -4.58% |
| CCc1ccc(-c2nc(CN3CCC(C(=O)NCCc4ccc(C)cc4)CC3)c(C)o2)cc1 | inactive: -8.35% |
| COc1ccccc1-c1cc(C(=O)N2CCN(c3ccccc3)CC2)no1 | inactive: -14.4% |
| COc1ccc(NC(=O)C(c2ccccc2)N2Cc3ccccc3C2=O)cc1 (stereo not drawn) | inactive: -7.05% |
| Cc1cc(C)c2c(=O)cc(C(=O)Nc3ccc(C)c(Cl)c3)oc2c1 | inactive: -3.59% |
| CCOC(=O)Cn1c(C2CC(=O)N(c3ccc(C)cc3)C2)nc2ccccc21 (stereo not drawn) | inactive: -0.754% |
| CCC(=O)N1c2ccccc2CC1C(=O)NCCc1ccc(SC)cc1 (stereo not drawn) | inactive: 12.3% |
| Cc1ccccc1OCCn1cc(C(=O)C2CCCCC2)c2ccccc21 | inactive: 0.396% |
| COCCn1c(-c2ccccc2)c(C)n2c3c(=O)n(C)c(=O)n(C)c3nc12 | inactive: -5.26% |
| Cc1ccc(C)c(N2CCN(C(=O)Cn3cnc4sc(C)c(S(=O)(=O)N5CCN(c6ncccn6)CC5)c4c3=O)CC2)c1 | inactive: -18.8% |
| O=C(Nc1ccc2c(c1)OCO2)c1cc(-c2cccc(Cl)c2)on1 | inactive: -11.2% |
| O=[N+]([O-])c1ccc(C(c2sc3nc(-c4ccco4)nn3c2O)N2CCN(Cc3ccccc3)CC2)cc1 (stereo not drawn) | inactive: -1.65% |
